# Reference: paper PMC9870993
# Amino acid sequences for entries named in this document (tags omitted). A change or cut given only in a name is not applied to a line headed by its entry. Chains listed by the source or under a name are the forms on record and can include a tag or linker.
# UniProt Q05609: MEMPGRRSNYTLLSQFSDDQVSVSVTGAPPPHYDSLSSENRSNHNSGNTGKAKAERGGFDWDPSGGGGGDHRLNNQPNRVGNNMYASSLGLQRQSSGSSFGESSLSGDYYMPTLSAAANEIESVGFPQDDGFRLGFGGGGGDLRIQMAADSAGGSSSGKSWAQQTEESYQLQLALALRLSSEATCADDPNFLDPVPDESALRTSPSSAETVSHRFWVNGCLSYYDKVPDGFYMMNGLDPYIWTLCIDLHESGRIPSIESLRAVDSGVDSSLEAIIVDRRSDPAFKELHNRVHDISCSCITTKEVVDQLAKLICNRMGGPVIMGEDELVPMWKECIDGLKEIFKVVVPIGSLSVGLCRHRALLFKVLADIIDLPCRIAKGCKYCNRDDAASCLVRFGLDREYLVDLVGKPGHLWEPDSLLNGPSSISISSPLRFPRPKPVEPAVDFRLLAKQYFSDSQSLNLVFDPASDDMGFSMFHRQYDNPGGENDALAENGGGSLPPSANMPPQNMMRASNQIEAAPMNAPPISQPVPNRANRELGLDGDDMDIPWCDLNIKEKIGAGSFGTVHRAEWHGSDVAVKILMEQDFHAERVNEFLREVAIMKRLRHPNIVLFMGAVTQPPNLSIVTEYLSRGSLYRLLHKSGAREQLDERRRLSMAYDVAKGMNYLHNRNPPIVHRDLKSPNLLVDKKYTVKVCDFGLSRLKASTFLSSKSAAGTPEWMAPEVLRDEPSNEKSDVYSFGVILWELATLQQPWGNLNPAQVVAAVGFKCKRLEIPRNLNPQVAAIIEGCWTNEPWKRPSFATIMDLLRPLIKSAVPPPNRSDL
# ∆NT-CTR1^AAA (kinase domain of CTR1 with T704/S707/S710 altered to Ala) (Q05609, form named): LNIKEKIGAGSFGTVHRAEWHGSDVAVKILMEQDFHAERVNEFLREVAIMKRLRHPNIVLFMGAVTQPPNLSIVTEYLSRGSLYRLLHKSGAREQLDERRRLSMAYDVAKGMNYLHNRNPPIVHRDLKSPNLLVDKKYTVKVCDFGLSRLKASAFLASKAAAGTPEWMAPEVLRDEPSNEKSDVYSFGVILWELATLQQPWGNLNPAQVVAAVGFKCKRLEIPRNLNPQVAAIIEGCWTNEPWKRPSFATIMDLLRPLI
# ∆NT-CTR1-1 (kinase domain of CTR1 with the ctr1-1 mutation D694E, catalytically inactive) (Q05609, form named): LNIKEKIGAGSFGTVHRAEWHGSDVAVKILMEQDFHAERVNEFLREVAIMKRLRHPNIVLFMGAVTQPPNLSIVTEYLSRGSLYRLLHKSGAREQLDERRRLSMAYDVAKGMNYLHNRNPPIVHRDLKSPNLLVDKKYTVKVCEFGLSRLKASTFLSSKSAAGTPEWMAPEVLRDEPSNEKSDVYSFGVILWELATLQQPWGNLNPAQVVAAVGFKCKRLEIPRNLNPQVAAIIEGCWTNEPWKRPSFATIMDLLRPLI
# Like-named read-outs stand apart in the source and are kept apart here. Results are given in words; binding and its absence hold for the method and conditions named. For part of these data: Binding seen in cells or lysates may run through a third protein. Some binding calls cover weakened binding; strength is not graded here. For part of these data: Where a sequence is shown, tags or fusion partners need not be part of it.
# Tests used:
# [1] = target: ∆NT-CTR1^AAA (kinase domain of CTR1 with T704/S707/S710 altered to Ala) (Arabidopsis thaliana) (UniProt Q05609); assay: two-hybrid; bait and prey constructs (pGBKT7, pGADT7) co-transformed into yeast strain AH109; positive interactions selected on medium lacking histidine, tryptophan, leucine and adenine
# [2] = target: ∆NT-CTR1 (CTR1 lacking the N-terminal domain; kinase domain of CONSTITUTIVE TRIPLE RESPONSE1) (Arabidopsis thaliana) (UniProt Q05609); assay: as above
# [3] = target: ∆NT-CTR1-1 (kinase domain of CTR1 with the ctr1-1 mutation D694E, catalytically inactive) (Arabidopsis thaliana) (UniProt Q05609); assay: as above
# [4] = target: ∆NT-CTR1 (CTR1 lacking the N-terminal domain; kinase domain of CONSTITUTIVE TRIPLE RESPONSE1) (Arabidopsis thaliana) (UniProt Q05609); assay: as above; remark: listed apart in the source
# [5] = target: Full-length wild-type CTR1, nYFP fusion for BiFC (Arabidopsis thaliana) (UniProt Q05609); assay: split reporter; BiFC (nYFP and cYFP fusions) in infiltrated N. benthamiana leaves, confocal microscopy of leaf disks; with or without ACC
# [6] = target: CTR1 expressed in N. benthamiana for co-immunoprecipitation (Arabidopsis thaliana) (UniProt Q05609); assay: co-IP; total protein extracts of N. benthamiana leaves infiltrated with co-transformed Agrobacteria, 3 d; anti-GFP overnight at 4 °C, Protein A/G magnetic beads; buffer 25 mM Tris pH 7.5, 150 mM NaCl, 5 mM EDTA, 1 mM DTT; blots with anti-GFP and anti-Myc
binding [3],binding [4],binding [5],Molecule,further results
,,,∆NT-CTR1^AAA (kinase domain of CTR1 with T704/S707/S710 altered to Ala) (from UniProt Q05609 551-809) (domain or fragment),binding [1]: no binding
,,,∆NT-CTR1 (CTR1 lacking the N-terminal domain; kinase domain of CONSTITUTIVE TRIPLE RESPONSE1) (from UniProt Q05609 551-809) (domain or fragment),binding [2]: binds
binds,binds,,"EIN3-Binding F-box 1 (EBF1), two-hybrid fusion (protein, UniProt Q9SKK0 1-628) MSQIFSFAGENDFYRRGAIYPNPKDASLLLSLGSFADVYFPPSKRSRVVAPTIFSAFEKKPVSIDVLPDECLFEIFRRLSGPQERSACAFVSKQWLTLVSSIRQKEIDVPSKITEDGDDCEGCLSRSLDGKKATDVRLAAIAVGTAGRGGLGKLSIRGSNSAKVSDLGLRSIGRSCPSLGSLSLWNVSTITDNGLLEIAEGCAQLEKLELNRCSTITDKGLVAIAKSCPNLTELTLEACSRIGDEGLLAIARSCSKLKSVSIKNCPLVRDQGIASLLSNTTCSLAKLKLQMLNVTDVSLAVVGHYGLSITDLVLAGLSHVSEKGFWVMGNGVGLQKLNSLTITACQGVTDMGLESVGKGCPNMKKAIISKSPLLSDNGLVSFAKASLSLESLQLEECHRVTQFGFFGSLLNCGEKLKAFSLVNCLSIRDLTTGLPASSHCSALRSLSIRNCPGFGDANLAAIGKLCPQLEDIDLCGLKGITESGFLHLIQSSLVKINFSGCSNLTDRVISAITARNGWTLEVLNIDGCSNITDASLVSIAANCQILSDLDISKCAISDSGIQALASSDKLKLQILSVAGCSMVTDKSLPAIVGLGSTLLGLNLQQCRSISNSTVDFLVERLYKCDILS",
,,binds,"cYFP-EBF1 (BiFC) (protein, UniProt Q9SKK0 1-628) MSQIFSFAGENDFYRRGAIYPNPKDASLLLSLGSFADVYFPPSKRSRVVAPTIFSAFEKKPVSIDVLPDECLFEIFRRLSGPQERSACAFVSKQWLTLVSSIRQKEIDVPSKITEDGDDCEGCLSRSLDGKKATDVRLAAIAVGTAGRGGLGKLSIRGSNSAKVSDLGLRSIGRSCPSLGSLSLWNVSTITDNGLLEIAEGCAQLEKLELNRCSTITDKGLVAIAKSCPNLTELTLEACSRIGDEGLLAIARSCSKLKSVSIKNCPLVRDQGIASLLSNTTCSLAKLKLQMLNVTDVSLAVVGHYGLSITDLVLAGLSHVSEKGFWVMGNGVGLQKLNSLTITACQGVTDMGLESVGKGCPNMKKAIISKSPLLSDNGLVSFAKASLSLESLQLEECHRVTQFGFFGSLLNCGEKLKAFSLVNCLSIRDLTTGLPASSHCSALRSLSIRNCPGFGDANLAAIGKLCPQLEDIDLCGLKGITESGFLHLIQSSLVKINFSGCSNLTDRVISAITARNGWTLEVLNIDGCSNITDASLVSIAANCQILSDLDISKCAISDSGIQALASSDKLKLQILSVAGCSMVTDKSLPAIVGLGSTLLGLNLQQCRSISNSTVDFLVERLYKCDILS",
no binding,no binding,,"ETHYLENE-…3 (EIN3), two-hybrid fusion (protein, UniProt O24606 1-628) MMFNEMGMCGNMDFFSSGSLGEVDFCPVPQAEPDSIVEDDYTDDEIDVDELERRMWRDKMRLKRLKEQDKGKEGVDAAKQRQSQEQARRKKMSRAQDGILKYMLKMMEVCKAQGFVYGIIPENGKPVTGASDNLREWWKDKVRFDRNGPAAITKYQAENNIPGIHEGNNPIGPTPHTLQELQDTTLGSLLSALMQHCDPPQRRFPLEKGVPPPWWPNGKEDWWPQLGLPKDQGPAPYKKPHDLKKAWKVGVLTAVIKHMFPDIAKIRKLVRQSKCLQDKMTAKESATWLAIINQEESLARELYPESCPPLSLSGGSCSLLMNDCSQYDVEGFEKESHYEVEELKPEKVMNSSNFGMVAKMHDFPVKEEVPAGNSEFMRKRKPNRDLNTIMDRTVFTCENLGCAHSEISRGFLDRNSRDNHQLACPHRDSRLPYGAAPSRFHVNEVKPVVGFPQPRPVNSVAQPIDLTGIVPEDGQKMISELMSMYDRNVQSNQTSMVMENQSVSLLQPTVHNHQEHLQFPGNMVEGSFFEDLNIPNRANNNNSSNNQTFFQGNNNNNNVFKFDTADHNNFEAAHNNNNNSSGNRFQLVFDSTPFDMASFDYRDDMSMPGVVGTMDGMQQKQQDVSIWF",
,,no binding,"EIN3 with C-terminal cYFP (BiFC) (protein, UniProt O24606 1-628) MMFNEMGMCGNMDFFSSGSLGEVDFCPVPQAEPDSIVEDDYTDDEIDVDELERRMWRDKMRLKRLKEQDKGKEGVDAAKQRQSQEQARRKKMSRAQDGILKYMLKMMEVCKAQGFVYGIIPENGKPVTGASDNLREWWKDKVRFDRNGPAAITKYQAENNIPGIHEGNNPIGPTPHTLQELQDTTLGSLLSALMQHCDPPQRRFPLEKGVPPPWWPNGKEDWWPQLGLPKDQGPAPYKKPHDLKKAWKVGVLTAVIKHMFPDIAKIRKLVRQSKCLQDKMTAKESATWLAIINQEESLARELYPESCPPLSLSGGSCSLLMNDCSQYDVEGFEKESHYEVEELKPEKVMNSSNFGMVAKMHDFPVKEEVPAGNSEFMRKRKPNRDLNTIMDRTVFTCENLGCAHSEISRGFLDRNSRDNHQLACPHRDSRLPYGAAPSRFHVNEVKPVVGFPQPRPVNSVAQPIDLTGIVPEDGQKMISELMSMYDRNVQSNQTSMVMENQSVSLLQPTVHNHQEHLQFPGNMVEGSFFEDLNIPNRANNNNSSNNQTFFQGNNNNNNVFKFDTADHNNFEAAHNNNNNSSGNRFQLVFDSTPFDMASFDYRDDMSMPGVVGTMDGMQQKQQDVSIWF",
,,,"EBF2 expressed in N. benthamiana for co-immunoprecipitation (protein, UniProt Q708Y0 1-623) MSGIFRFSGDEDCLLGGSMYLSPGSCPGVYYPARKRLRVAATSFYSGFEEKQTSIDVLPEECLFEILRRLPSGQERSACACVSKHWLNLLSSISRSEVNESSVQDVEEGEGFLSRSLEGKKATDLRLAAIAVGTSSRGGLGKLQIRGSGFESKVTDVGLGAVAHGCPSLRIVSLWNLPAVSDLGLSEIARSCPMIEKLDLSRCPGITDSGLVAIAENCVNLSDLTIDSCSGVGNEGLRAIARRCVNLRSISIRSCPRIGDQGVAFLLAQAGSYLTKVKLQMLNVSGLSLAVIGHYGAAVTDLVLHGLQGVNEKGFWVMGNAKGLKKLKSLSVMSCRGMTDVGLEAVGNGCPDLKHVSLNKCLLVSGKGLVALAKSALSLESLKLEECHRINQFGLMGFLMNCGSKLKAFSLANCLGISDFNSESSLPSPSCSSLRSLSIRCCPGFGDASLAFLGKFCHQLQDVELCGLNGVTDAGVRELLQSNNVGLVKVNLSECINVSDNTVSAISVCHGRTLESLNLDGCKNITNASLVAVAKNCYSVNDLDISNTLVSDHGIKALASSPNHLNLQVLSIGGCSSITDKSKACIQKLGRTLLGLNIQRCGRISSSTVDTLLENLWRCDILY",binding [6]: binds
binds,binds,,"EIN3-Binding F-box 2 (EBF2), two-hybrid fusion (protein, UniProt Q708Y0 1-623) MSGIFRFSGDEDCLLGGSMYLSPGSCPGVYYPARKRLRVAATSFYSGFEEKQTSIDVLPEECLFEILRRLPSGQERSACACVSKHWLNLLSSISRSEVNESSVQDVEEGEGFLSRSLEGKKATDLRLAAIAVGTSSRGGLGKLQIRGSGFESKVTDVGLGAVAHGCPSLRIVSLWNLPAVSDLGLSEIARSCPMIEKLDLSRCPGITDSGLVAIAENCVNLSDLTIDSCSGVGNEGLRAIARRCVNLRSISIRSCPRIGDQGVAFLLAQAGSYLTKVKLQMLNVSGLSLAVIGHYGAAVTDLVLHGLQGVNEKGFWVMGNAKGLKKLKSLSVMSCRGMTDVGLEAVGNGCPDLKHVSLNKCLLVSGKGLVALAKSALSLESLKLEECHRINQFGLMGFLMNCGSKLKAFSLANCLGISDFNSESSLPSPSCSSLRSLSIRCCPGFGDASLAFLGKFCHQLQDVELCGLNGVTDAGVRELLQSNNVGLVKVNLSECINVSDNTVSAISVCHGRTLESLNLDGCKNITNASLVAVAKNCYSVNDLDISNTLVSDHGIKALASSPNHLNLQVLSIGGCSSITDKSKACIQKLGRTLLGLNIQRCGRISSSTVDTLLENLWRCDILY",
,,binds,"cYFP-EBF2 (BiFC) (protein, UniProt Q708Y0 1-623) MSGIFRFSGDEDCLLGGSMYLSPGSCPGVYYPARKRLRVAATSFYSGFEEKQTSIDVLPEECLFEILRRLPSGQERSACACVSKHWLNLLSSISRSEVNESSVQDVEEGEGFLSRSLEGKKATDLRLAAIAVGTSSRGGLGKLQIRGSGFESKVTDVGLGAVAHGCPSLRIVSLWNLPAVSDLGLSEIARSCPMIEKLDLSRCPGITDSGLVAIAENCVNLSDLTIDSCSGVGNEGLRAIARRCVNLRSISIRSCPRIGDQGVAFLLAQAGSYLTKVKLQMLNVSGLSLAVIGHYGAAVTDLVLHGLQGVNEKGFWVMGNAKGLKKLKSLSVMSCRGMTDVGLEAVGNGCPDLKHVSLNKCLLVSGKGLVALAKSALSLESLKLEECHRINQFGLMGFLMNCGSKLKAFSLANCLGISDFNSESSLPSPSCSSLRSLSIRCCPGFGDASLAFLGKFCHQLQDVELCGLNGVTDAGVRELLQSNNVGLVKVNLSECINVSDNTVSAISVCHGRTLESLNLDGCKNITNASLVAVAKNCYSVNDLDISNTLVSDHGIKALASSPNHLNLQVLSIGGCSSITDKSKACIQKLGRTLLGLNIQRCGRISSSTVDTLLENLWRCDILY",
